Some targets named below: SHP2 C-SH2 domain E139D; SHP2 N-SH2 domain L43F; SHP2 N-SH2 domain T42A; SHP2 N-SH2 domain T52S.
What all share (experiment): enrichment score (SH2-bound / input frequency) (ratio); bacterial display of known human phosphotyrosine sites (pTyr-Var adds point mutants) read by sequencing; higher = stronger binding; tyrosines were phosphorylated by kinases first
Holding throughout (conditions): peptide library: pTyr-Var

The target in assay [1] is SHP2 C-SH2 domain wild-type.
Assay [2] has as its target SHP2 N-SH2 domain wild-type.

The other results are listed elsewhere or left out. No stated cut-off is given here; in the data, active = 3.2 or more and inactive = the rest. Only a few entries rise above the background.

Experimental findings from the supplement of paper PMC10369915 are described below.
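Further: displayed peptides selected on beads carrying the immobilized SH2 domain, with library peptides lacking any tyrosine serving as negative controls.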

Turning to HDRNTYEKYLG [TF_Y666], the enrichment score was inactive: 0.71 with SHP2 C-SH2 domain E139D; inactive: 0.515 in assay [1]; inactive: 0.772 in the assay with SHP2 N-SH2 domain L43F; inactive: 0.424 with SHP2 N-SH2 domain T42A; inactive: 0.783 in the assay with SHP2 N-SH2 domain T52S; inactive: 0.512 in assay [2].

With GNLQEYLTRHV [TGFBR2_Y336], the enrichment score was inactive: 0.954 in the assay with SHP2 C-SH2 domain E139D; inactive: 0.851 in assay [1]; inactive: 0.643 in the assay with SHP2 N-SH2 domain L43F; inactive: 0.631 in the assay with SHP2 N-SH2 domain T42A; inactive: 0.863 in the assay with SHP2 N-SH2 domain T52S; inactive: 1.06 in assay [2].

Take HHTDEYEYDEL [TGM1_Y134]: the enrichment score in the assay with SHP2 C-SH2 domain E139D is inactive: 0.756; in assay [1], inactive: 0.775; with SHP2 N-SH2 domain L43F it was inactive: 0.553; with SHP2 N-SH2 domain T42A, inactive: 0.46; in the assay with SHP2 N-SH2 domain T52S, inactive: 0.58; in assay [2] it was inactive: 0.623.

FLRTGYSVPFG [TGM1_Y370_YF]: the enrichment score with SHP2 C-SH2 domain E139D was inactive: 1.24; in assay [1], inactive: 1.31; with SHP2 N-SH2 domain L43F it was inactive: 2.13; with SHP2 N-SH2 domain T42A, inactive: 2.71; with SHP2 N-SH2 domain T52S, inactive: 1.92; in assay [2], inactive: 1.17.

As to HHTDEYEFDEL [TGM1_Y134_YF], the enrichment score with SHP2 C-SH2 domain E139D is inactive: 0.658; in assay [1] it was inactive: 0.948; with SHP2 N-SH2 domain L43F it was inactive: 0.787; with SHP2 N-SH2 domain T42A, inactive: 0.557; in the assay with SHP2 N-SH2 domain T52S it was inactive: 0.799; in assay [2] it was inactive: 0.417.

HHTDECEFDEL [TGM1_Y134_Y134C_YF]: the enrichment score with SHP2 C-SH2 domain E139D was inactive: 0.669; in assay [1], inactive: 0.469; with SHP2 N-SH2 domain L43F, inactive: 0.526; with SHP2 N-SH2 domain T42A, inactive: 0.828; in the assay with SHP2 N-SH2 domain T52S, inactive: 0.666; in assay [2], inactive: 0.521.

On to VDFQPYRKHKF [TEX37_Y28_YF], for which the enrichment score in the assay with SHP2 C-SH2 domain E139D was inactive: 1.25; in assay [1], inactive: 0.821; with SHP2 N-SH2 domain L43F, inactive: 1.05; with SHP2 N-SH2 domain T42A, inactive: 0.864; in the assay with SHP2 N-SH2 domain T52S, inactive: 1; in assay [2] it was inactive: 1.12.

In the case of TDECEYDELIV [TGM1_Y136_Y134C], the enrichment score was inactive: 0.775 in the assay with SHP2 C-SH2 domain E139D, inactive: 1.13 in assay [1] and inactive: 0.332 with SHP2 N-SH2 domain T52S.

Regarding GEPLSHTRFSL [TFRC_Y20_Y20H], the enrichment score with SHP2 C-SH2 domain E139D was inactive: 0.749; in assay [1] it was inactive: 0.811; in the assay with SHP2 N-SH2 domain L43F, inactive: 0.882; in the assay with SHP2 N-SH2 domain T42A, inactive: 0.925; in the assay with SHP2 N-SH2 domain T52S, inactive: 0.748; in assay [2], inactive: 0.851.

As to GEPLSYTRFSL [TFRC_Y20], the enrichment score with SHP2 C-SH2 domain E139D was inactive: 0.756; in assay [1] it was inactive: 0.698; with SHP2 N-SH2 domain L43F, inactive: 0.792; in the assay with SHP2 N-SH2 domain T42A, inactive: 0.854; in the assay with SHP2 N-SH2 domain T52S it was inactive: 0.712; in assay [2] it was inactive: 1.05.

Regarding SSQTIYQRVEG [TFR2_Y23_V22I], the enrichment score with SHP2 C-SH2 domain E139D is inactive: 0.805; in assay [1], inactive: 0.936; with SHP2 N-SH2 domain L43F it was inactive: 0.691; with SHP2 N-SH2 domain T42A, inactive: 0.64; with SHP2 N-SH2 domain T52S it was inactive: 0.675; in assay [2], inactive: 0.632.

With FLRTGYSIPFG [TGM1_Y370_V372I_YF], the enrichment score in the assay with SHP2 C-SH2 domain E139D was inactive: 1.67; in assay [1] it was inactive: 1.91; in the assay with SHP2 N-SH2 domain L43F, inactive: 2.18; with SHP2 N-SH2 domain T42A, active: 4.2; with SHP2 N-SH2 domain T52S, inactive: 2.68; in assay [2] it was inactive: 1.56.

On to TDEYEYDELIV [TGM1_Y136], for which the enrichment score with SHP2 C-SH2 domain E139D was inactive: 0.436; in assay [1] it was inactive: 0.563; with SHP2 N-SH2 domain L43F, inactive: 0.417; with SHP2 N-SH2 domain T42A, inactive: 0.663; with SHP2 N-SH2 domain T52S, inactive: 0.369; in assay [2] it was inactive: 0.631.

For AVLALYNSTRD [TGFB1_Y81], the enrichment score in the assay with SHP2 C-SH2 domain E139D was inactive: 1.16; in assay [1], inactive: 1.03; with SHP2 N-SH2 domain L43F, inactive: 1.03; in the assay with SHP2 N-SH2 domain T42A it was inactive: 1.2; with SHP2 N-SH2 domain T52S, inactive: 1.17; in assay [2], inactive: 1.2.

With GRGMPYGGRGD [TGM1_Y312_R307G], the enrichment score with SHP2 C-SH2 domain E139D was inactive: 1.29; in assay [1] it was inactive: 0.608; in the assay with SHP2 N-SH2 domain L43F, inactive: 0.643; in the assay with SHP2 N-SH2 domain T42A it was inactive: 0.44; with SHP2 N-SH2 domain T52S, inactive: 0.743; in assay [2] it was inactive: 0.672.

As to HHTDECEYDEL [TGM1_Y134_Y134C], the enrichment score in the assay with SHP2 C-SH2 domain E139D was inactive: 0.77; in assay [1], inactive: 0.849; with SHP2 N-SH2 domain L43F, inactive: 0.672; with SHP2 N-SH2 domain T42A, inactive: 0.557; in the assay with SHP2 N-SH2 domain T52S it was inactive: 0.736; in assay [2], inactive: 0.64.

For the molecule EILLSYPRTGY [TGM1_Y365_L366P], the enrichment score in the assay with SHP2 C-SH2 domain E139D was inactive: 0.955; in assay [1], inactive: 0.953; in the assay with SHP2 N-SH2 domain L43F it was inactive: 0.941; in the assay with SHP2 N-SH2 domain T42A, inactive: 0.944; with SHP2 N-SH2 domain T52S it was inactive: 0.982; in assay [2], inactive: 0.983.

Take HEHKGYNANFC [TGFB2_Y341_P338H]: the enrichment score with SHP2 C-SH2 domain E139D is inactive: 1.67; in assay [1], inactive: 1.85; with SHP2 N-SH2 domain L43F, inactive: 2.23; with SHP2 N-SH2 domain T42A, inactive: 1.8; in the assay with SHP2 N-SH2 domain T52S, inactive: 1.92; in assay [2] it was inactive: 1.67.

KPVEEYANCHL [TF_Y593]: the enrichment score with SHP2 C-SH2 domain E139D was inactive: 0.995; in assay [1], inactive: 1.09; in the assay with SHP2 N-SH2 domain L43F, inactive: 0.917; with SHP2 N-SH2 domain T42A, inactive: 0.825; in the assay with SHP2 N-SH2 domain T52S, inactive: 0.892; in assay [2] it was inactive: 1.13.
